Measurements as given in ChEMBL document CHEMBL4888484, “Replenishing the malaria drug discovery pipeline: Screening and hit evaluation of the MMV Hit Generation Library 1 (HGL1) against asexual blood stage Plasmodium falciparum ,using a nano luciferase reporter read-out” (2022).
“And” between values parts separate entries of the source, which are not always exact repeats. Equal entries are not always repeated. In all, about 150,000 compounds went through this assay and about 540 (0.36%) showed an effect of 50% or more. This is one part of the list.

Tested on: Plasmodium falciparum
Assay: Primary screen in NF54 nanoGlo assay, in single point, at 2uM, 72h; a lower Z score goes with more inhibition
Type: functional, Erythrocyte
Conditions: timepoint 72 hour

Structure (SMILES) | % Inhibition [%] | Z score | % Inhibition (2 µM)
CC[C@H]1c2cccn2CCN1C(=O)c1cnn(Cc2ccccc2)c1 | -13 | 1.51 | –
CCN(Cc1noc(C)n1)C(=O)NCC1(N2CCCCC2)CCCC1 | -20 | 1.79 | –
Cc1cccc(N2C(=O)[C@@H]3Cc4c([nH]c5ccccc45)C(c4cccc(Cl)c4)N3C2=O)c1 (some centres not stated) | -13 | 1.62 | –
CN1CCO[C@H](C(=O)N2CCC3(CC2)OCCc2ccccc23)C1 | 2 | -0.24 | –
O=C(NCc1nccs1)c1nn(Cc2ccccc2)c2c1CN(C(=O)[C@@H]1CCCO1)CC2 | -19 | 2.44 | –
c1ccc(C2(c3nc(C4CCCCC4)no3)CCOCC2)cc1 | -7 | 1.11 | –
Cn1c(=O)n([C@H]2CCCN(Cc3ccco3)C2)c2ncncc21 | -18 | 1.79 | –
CC(C)(C)c1ccc(CCC(=O)N[C@@]2(C)CCOC2)cc1 | 6 | -0.68 | –
O=C(NC1(CN2CCOCC2)CCCC1)c1cccc(-c2ncccc2O)c1 | 1 | -0.11 | –
O=C(CC1CC2CCC1C2)N1CCC(c2ncc[nH]2)C1 (configuration not stated) | -4 | 0.55 | –
CC[C@@H]1Oc2ccc(NC(=O)c3ccc4c(c3)OCO4)cc2CN(Cc2ccccc2)C1=O | 1 | -0.07 | –
Cc1ccc(NC(=O)N(C)C)c(Cl)c1 | 1 | -0.08 | –
O=S(=O)(Nc1cccc2c1CCCC2)c1ccc(-c2cnc(C3CC3)o2)cc1 | -5 | 0.93 | –
Cc1cc(C)nc(CN(C)Cc2c(C)nc3ccccn23)c1 | 2 | -0.36 | –
O=C(O)CN1CCC[C@H](c2nc(-c3ccccc3)c[nH]2)C1 | -8 | 0.94 | –
CCn1cc(C(=O)NC[C@H]2CCCN(Cc3ccoc3)C2)cn1 | -19 | 2.93 | –
CC1CC(c2ccccc2)CN1C(=O)c1ccc2nccn2c1 (configuration not stated) | -8 | 1.13 | –
O=C1Nc2ccc(S(=O)(=O)N3CCCC3)c3ccc(S(=O)(=O)N4CCCC4)c1c23 | 5 | -0.66 | –
O=C(C1CCCC1)N1C[C@@H]2CN(CCc3cccc(F)c3)C[C@]2(C(=O)O)C1 | -4 | 0.71 | –
CC(=O)N1CCN(c2nc(Cc3ccc(C)cc3)nc3c2c(C)nn3-c2ccccc2)CC1 | 7 | -0.78 | –
O=C(N[C@@H]1C[C@@H]2CCCC[C@@H]21)c1nccc2occc12 | -4 | 0.68 | –

Structure (SMILES) | % Inhibition [%] | Z score | % Inhibition (2 µM)
Cn1ccnc1-c1c(-c2ccccc2)ncn1C(CO)CO | -2 | 0.23 | –
CCc1nc(CNC(=O)N2C3CCC2CC(CCF)C3)co1 (configuration not stated) | -9 | 1.69 | –
CCCNC(=O)CCc1c(C)n(C)c2nc(-c3ccc(Cl)cc3)nn2c1=O | -15 | 1.5 | –
Cc1ccc(S(=O)(=O)NCc2ccc(CNS(=O)(=O)c3ccc(C)cc3)cc2)cc1 | -2 | 0.2 | –
Cc1csc(-c2ccc(N3CCN(C(=O)c4cc(F)ccc4Cl)CC3)nc2)n1 | -28 | 4.8 | –
CC(=O)N1CC[C@H](Nc2nc(C3CC3)ns2)C1 | -6 | 0.62 | –
CC(C)(C)c1cc2c(NCC3=CCOCC3)nccn2n1 | 43 | -5.48 | –
Cc1ccc2[nH]c3c(c2c1)CCOc1ccccc1-3 | 9 | -1.24 | –
Cn1cc(NC(=O)CCC2CCCCCC2)c(C(N)=O)n1 | 3 | -0.6 | –
O=C(CN1CCCN(c2ccnc(Cc3ccc(F)cc3)n2)CC1)N1CCCC1 | -9 | 1.42 | –
O=C(O)[C@H](Cc1ccccc1)Nc1ncccn1 | -18 | 3.46 | –
COc1ccc(Br)c([C@H](CO)N(C)Cc2cc3n(n2)CCCC3)c1 | -3 | 0.4 | –
CCOC(=O)CN1CCN(c2ccc(-c3ccccc3)cc2)C(=O)[C@@H]1C | -13 | 2.09 | –
CCCn1ccnc1CN1C[C@H]2CC[C@@H](C1)N(CC=C(C)C)C2 | -28 | 2.96 | –
CC(C)n1cc(NC(=O)NCCC[C@H]2CCCCO2)cn1 | -3 | 0.34 | –
CN(C(=O)c1ccc(Br)cc1-n1cncn1)C1CCC1 | -3 | 0.36 | –
CN(C(=O)NC[C@H]1CC2(CCOCC2)CO1)C1CC1 | -12 | 1.88 | –
Cc1c([C@H]2NC(=O)c3ccccc3N2C)cc(C#N)n1C | -1 | 0.05 | –
Cc1cc(NC(=O)N2CCC[C@H](C3CCOCC3)C2)c(N(C)C)nn1 | -2 | 0.28 | –
NCc1n[nH]c(=O)n1-c1ccc2c(c1)OCO2 | -8 | 1.16 | –
COc1ccc(CCNc2nccn(-c3ccc4c(c3)OCCO4)c2=O)cc1OC | -12 | 1.35 | –

Structure (SMILES) | % Inhibition [%] | Z score | % Inhibition (2 µM)
Cc1nn(-c2ccccc2)c2c1[C@@H](c1ccc(C(F)(F)F)cc1)N(c1ccccc1)C(=O)N2 | 33 | -4.23 | –
O=S(=O)(Nc1ccccc1-c1nc2ccccc2nc1O)c1cccc(F)c1 | – | – | -9% and 2%
O=C(c1cn[nH]c1)N(CC1CCN(C2Cc3ccccc3C2)CC1)C[C@H]1CCCO1 | -3 | 0.36 | –
CCn1nccc1-c1nc(-c2ncccn2)no1 | -9 | 1.19 | –
O=C1CCCc2[nH]c(=O)c(C(=O)N3CCCc4ccccc43)cc21 | -5 | 0.9 | –
Cc1[nH]ncc1C(=O)N1CCCN(Cc2ccc(C(F)(F)F)cc2)CC1 | -1 | 0.16 | –
C/C=C/CC(=O)N1CCC[C@@]2(CCC(=O)N(Cc3ccncc3)C2)C1 | -21 | 2.4 | –
O=C(N[C@@]1(C(F)(F)F)NC(c2ccccc2)=NC1=O)c1ccc(Cl)cc1Cl | -10 | 1.42 | –
COCc1nc(C(=O)Nc2cccnc2C2CC2)cs1 | -15 | 2 | –
Cc1noc2ncnc(N3CCCN(CCCc4ccccc4)CC3)c12 | -1 | 0.13 | –
COC(=O)Nc1cccc(OS(=O)(=O)C[C@H](CC(C)C)OC)c1 | 3 | -0.62 | –
Cc1ccc(-c2coc(-c3cccc(NS(=O)(=O)c4ccc(Br)cc4C)c3)n2)cc1 | 2 | -0.42 | –
O=C(c1cccc2c1CCOC2)N1CCCc2c1nc[nH]c2=O | -9 | 1.22 | –
FC(F)(F)C1CN(c2ncnc3[nH]ccc23)C1 | -5 | 0.93 | –
O=C(Nc1cccc(F)c1)C(F)(F)[C@@]1(F)OC(F)(F)C(F)(F)C1(F)F | -1 | 0.23 | –
CC(C)OCCCNC(=O)CCC(=O)NCc1ccco1 | 2 | -0.27 | –
Cc1cc(OCC(=O)Nc2ccnn2C2CCCC2)nnc1C | -2 | 0.28 | –
Cc1n[nH]c(=O)nc1Nc1ccc(N2CCCCC2)cc1 | -4 | 0.5 | –
CN(CCC(C)(C)O)C(=O)c1cc(F)cc(Cl)c1 | -7 | 1.18 | –
C[C@H](NS(C)(=O)=O)c1nc(-c2cccnn2)no1 | 1 | -0.26 | –
CCOc1ncccc1C(=O)N1CC[C@@H]2OCc3cccc(c3)Oc3cccc(c3)CCC(=O)N(C)CC(=O)N[C@@H]2C1 | 11 | -1.51 | –

Structure (SMILES) | % Inhibition [%] | Z score | % Inhibition (2 µM)
Cc1nn(C)c(C)c1C(=O)N[C@H]1CCN(c2ccc3nncn3n2)C1 | 3 | -0.41 | –
O=C(c1nc2c(s1)CCCC2)N1CCC[C@H](c2nnc3ccccn23)C1 | -5 | 0.81 | –
CCn1cc(NC(=O)[C@@]2(C)CC2(Cl)Cl)cn1 | -2 | 0.34 | –
Cc1nc(C(=O)NC2C(C)CCCC2C)c(C)o1 (configuration not stated) | 1 | -0.22 | –
Cc1ccc(S(=O)(=O)Nc2ccc3c(c2)CCCN3S(=O)(=O)c2cccs2)c(C)c1 | 2 | -0.22 | –
CN1[C@@H]2CC[C@H]1CN(C(=O)Nc1ccc3c(c1)CCC3)CC2 | 2 | -0.26 | –
CN1CCO[C@](c2ccccc2)(C(O)(c2ccccc2)c2ccccc2)C1=O | -3 | 0.57 | –
O=S(=O)(c1ccc(F)cc1F)N1CCN=C1N1CCCCC1 | -1 | 0.24 | –
CCCC(CCC)NCc1cnn(C)c1 | -10 | 1.05 | –
CN(C)c1ccc(-c2cccnc2)nn1 | -3 | 0.64 | –
O=C(Nc1nnc2ccccn12)C1CCCC1 | -5 | 0.58 | –
Nc1nnnn1CC(=O)N[C@H]1CC2(CCCCC2)Oc2ccccc21 | -11 | 2.37 | –
COCCOc1cc2cc(c1)C(=O)NCCNC(=O)N[C@H]1CCN(Cc3cnc(C)n3C)C[C@@H]1OCc1cccc(c1)O2 | -4 | 0.67 | –
COc1cccc(CNCCCN2CCOCC2)c1OCc1ccc(Cl)cc1Cl | 30 | -1.27 | –
CC1CC(c2ccccc2)CN1C(=O)NC1CCC(=O)NC1C1CCCO1 (configuration not stated) | 28 | -3.49 | –
CN1C[C@@H]2CC[C@H](CC1=O)N2S(=O)(=O)CC1CCC1 | -7 | 0.94 | –
Cc1cc(F)ccc1NS(=O)(=O)c1cc(-c2onc(C)c2C)sc1C | 1 | -0.08 | –
COc1ccccc1[C@H](CNC(=O)NC1CC1)N1CCCCC1 | -7 | 0.96 | –
CC(C)c1nc(CC(=O)N2CCOCC2)cs1 | -8 | 0.8 | –
O=C(NCC1COc2ccccc2O1)C1CCc2[nH]cnc2C1 (configuration not stated) | -18 | 3.02 | –
Cc1cc2nc3n(c(=O)c2n1CC(=O)Nc1cc(F)ccc1F)CCCCC3 | -17 | 1.92 | –
